Experimental data reported in PubChem BioAssay AID463173 (ICCB-Longwood Screening Facility, Harvard Medical School, 2010).
Screen size: about 52,000 compounds; about 4,300 (8.3%) were called active. No stated cut-off is given here; in the data, active means survival mostly below about 52% (no sharp cut-off); inactive means mostly above about 56%. This is one part of the list.

The molecules below were run on DeltatarO mutant (assay: growth inhibition of S. aureus wild type versus tarO mutant, primary screen, teichoic acid synthesis inhibitors, RN4220, OD600 (AID 463173)). Conditions: OD600, 18 h, hits give low values, screened at 18.75 µg/mL (by protocol).

SMILES	survival
COc1ccc(CCNC(=O)CCCn2c(=O)c3ccccc3n(Cc3ccc(F)cc3Cl)c2=O)cc1OC	inactive: 102%
Cc1ccc(N2CC(NC(=O)c3ccc(S(=O)(=O)N4CCOCC4)cc3)CC2=O)cc1C (stereo not drawn)	inactive: 118%
Cc1cc2oc(=O)c(CC(=O)O)c(C)c2c2occ(-c3ccc(F)cc3)c12	inactive: 49%
c1csc(C2=NC(c3ccncc3)=Nc3ccccc3N2)c1	inactive: 93%
Cc1ccc(-n2ncc(C(=O)NCCCN3CCN(c4cccc(Cl)c4)CC3)c2-n2cccc2)cc1	inactive: 75%
O=C(CSC1=Nc2ccccc2N=C(c2ccc(F)cc2)C1)NCc1ccccc1	inactive: 120%
CCOc1ccc(C(=O)NCCc2sc3nc(-c4ccc(Cl)cc4)nn3c2C)cc1OCC	inactive: 89%
O=C(NCCc1ccc(Cl)cc1)c1ccc(Cn2c(=O)c3cccn3c3cccnc32)cc1	active: 43%
CC1CCCN(Cc2cn3c(-c4cccc(Br)c4)nnc3s2)C1 (stereo not drawn)	inactive: 75%
Cc1ccc(CNc2nc3ccccc3c3nc(-c4cccc(C)c4)nn23)cc1	active: 18%
CCCSc1oc(-c2cccs2)nc1S(=O)(=O)c1ccc(Cl)cc1	inactive: 65%
O=C(c1cnc(N2CCCCC2)c2ccccc12)N1CCN(c2ccccc2F)CC1	inactive: 75%
Cc1ccc2c(c1)c1c(c(=O)n(Cc3ccccc3)c(=O)n1Cc1cccc(C(F)(F)F)c1)n2C	inactive: 83%
CC(=O)Nc1ccc2c(c1)C(=O)N(c1ccccc1)C2=O	inactive: 90%
COc1ccc(CNC(=O)CCc2c(C)nn(-c3ccc(N4CCCCC4)nn3)c2C)c(OC)c1	active: 52%
CC(NC(=O)c1cccc(NC(=O)c2nsc3ccccc23)c1)c1ccccc1 (stereo not drawn)	inactive: 115%
COc1ccc2c(c1)Cc1sc(NC(=O)c3cccc(F)c3)nc1-2	inactive: 67%
CCCC(=O)Nc1cc(-c2nc3cccnc3s2)ccc1C	inactive: 109%
Cc1ccc(NC(=O)NCC2CCN(Cc3cccc(Cl)c3)CC2)cc1Cl	active: -5%
COCc1cc(C)n(CC(N)=O)c(=O)c1C#N	inactive: 88%
CCc1cccc(NC(c2nnc(-c3ccccc3)o2)c2ccc(F)cc2Cl)c1 (stereo not drawn)	inactive: 83%
CCOC(=O)c1ccc(NC(=O)C2CC(=O)N(c3ccc(C(C)C)cc3)C2)cc1 (stereo not drawn)	inactive: 83%

SMILES	survival
CC(C)c1c(O)nc(SCCC(=O)O)[nH]c1=O	inactive: 88%
Cc1ccccc1OCC(=O)Nc1ccc2nc(SCCOc3ccccc3)sc2c1	inactive: 99%
Cc1ccc(C)c(Cn2c(SCC(=O)N(C)Cc3ccccc3)nc3ccccc32)c1	inactive: 94%
Cc1ccc(C)c(N2CCN(C(=O)CCCCCn3c(=O)[nH]c4ccccc4c3=O)CC2)c1	inactive: 78%
CCOc1ccc(-c2cc(C(=O)N3CCN(c4cccc(C)c4)C(C)C3)c3ccccc3n2)cc1 (stereo not drawn)	inactive: 89%
Cc1ccc(-c2nnc(Nc3ccc(S(N)(=O)=O)cc3)c3ccccc23)cc1S(=O)(=O)N1CCOCC1	inactive: 61%
CCc1ccccc1NC(=O)C(=O)NCC(c1cccnc1)N1CCc2ccccc21 (stereo not drawn)	inactive: 58%
CN(C)S(=O)(=O)c1ccc(NC(=O)Cn2c(-c3ccccc3)noc2=O)cc1	inactive: 80%
CCOc1ccc(NC(=O)CSc2ncc3c(n2)-c2cc(Cl)ccc2N(C)S3(=O)=O)cc1	active: 0%
Cc1ccc2cccc(NC(=O)C(C)Oc3ccc(C)c(C)c3)c2n1 (stereo not drawn)	inactive: 56%
CC1=C(C(=O)NCc2ccc(C)cc2)C2(CCCCC2)OC1=O	inactive: 66%
O=C(Nc1cc(Cl)ccc1Cl)C1(c2cccs2)CCOCC1	inactive: 82%
Cc1noc(Cn2c(=O)c3ccccc3n(CC(=O)Nc3ccc(Cl)cc3)c2=O)n1	inactive: 78%
Cc1cccc(NC(=O)CCNS(=O)(=O)c2cccc3nonc23)c1	active: 44%
CCOc1ccc(NS(=O)(=O)c2ccc3[nH]cc(C(=O)NC4CCCC4)c(=O)c3c2)cc1	active: 39%
CCOc1ccc(C(=O)c2cn(Cc3ccc(OC)cc3)c3cc(OC)c(OC)cc3c2=O)cc1	inactive: 88%
CCn1c(C(C)C)n[nH]c1=S	inactive: 80%
COc1cccc(-n2c(-c3ccco3)nc3c(cnn3-c3ccc(C)cc3)c2=O)c1	active: 52%
CCN1CCCC1CNC(=O)c1c(O)c2c([nH]c1=O)CCCC2 (stereo not drawn)	inactive: 99%
O=C(Nc1ncc(Cc2ccc(Cl)cc2)s1)c1ccc2c(c1)CC(c1ccccc1)OC2=O (stereo not drawn)	inactive: 71%
CN1C(=O)C(O)N(c2ccc(Cl)c(Cl)c2)C1=O (stereo not drawn)	inactive: 108%
COc1ccc(Nc2ncc(C(=O)Nc3cc(Cl)c(OC)cc3OC)c3ccccc23)cc1	inactive: 72%

SMILES	survival
Cc1ccc(C)c(C2C(C#N)=C(N)OC3=C2C(=O)CCC3)c1 (stereo not drawn)	inactive: 68%
CN(C)c1ccc(C(CNS(=O)(=O)c2ccc(F)cc2)N2CCCC2)cc1 (stereo not drawn)	inactive: 106%
O=C(CCS(=O)(=O)c1nc(-c2ccc3c(c2)OCO3)cc(C(F)(F)F)n1)Nc1ccc(F)c(Cl)c1	active: 23%
COc1ccc(N2CCN(C(=O)c3ccc(Nc4nc5ccccc5n5nnnc45)cc3)CC2)cc1	inactive: 80%
O=c1c2cc3c(cc2n(Cc2cccc(Cl)c2)c(=O)n1Cc1nc(-c2ccccc2)no1)OCO3	inactive: 61%
CCOc1ccccc1C(=O)Nc1ccccc1	inactive: 65%
CC(=O)N1CCCc2cc(S(=O)(=O)N3CCCC(C(=O)Nc4cccc(F)c4)C3)ccc21 (stereo not drawn)	inactive: 87%
COc1ccc(NC(=O)CCNS(=O)(=O)c2cccc3nonc23)c(OC)c1	active: 50%
CCOc1ccccc1NC(=O)CSc1ncc(S(=O)(=O)c2ccc(C(C)(C)C)cc2)c(=O)[nH]1	inactive: 58%
O=C(CN(C(=O)Cn1nnc(-c2ccc(F)cc2)n1)c1ccccc1C(F)(F)F)NCc1ccco1	inactive: 98%
CCCCNC(=O)CCn1c(=O)c2cccn2c2ccc(F)cc21	active: 41%
CC1(C)Cc2ccccc2-c2nnc(-c3ccccc3)n21	inactive: 98%
O=C1CN=C(Nc2cccc(C(F)(F)F)c2)N1C1CCCC1	inactive: 105%
COc1cccc(CNC(=O)CSc2nc3ccccc3nc2Cc2ccc(C)cc2)c1OC	inactive: 74%
Cc1ccc(NC(=O)CCNS(=O)(=O)c2ccc3c(c2)CCN3C(=O)C2CC2)c(Cl)c1	inactive: 83%
CCCn1c2ccccc2c2cnn(CC(=O)NCCc3ccc(OCC)c(OCC)c3)c(=O)c21	inactive: 92%
CCOC(=O)CNC(=O)c1cc2c(=O)n3cccc(C)c3nc2s1	inactive: 179%
COc1cccc(C2CC(=O)Nc3c2c(=O)nc2c(C)cccn32)c1 (stereo not drawn)	inactive: 70%
CCOCCCNC(=O)Cn1cc2c(n1)-c1c(oc(C(=O)N3CCCC3)c1C)CC2	inactive: 77%
COc1c(Cl)cc(Cl)cc1/C=C(\C#N)c1nc(-c2ccc(Cl)cc2)cs1	inactive: 122%
COc1ccc(-c2cc(-c3ccc4c(c3)NC(=O)CO4)nc3c2COc2ccc(C)cc2-3)cc1	inactive: 86%
CCc1ccccc1NC(=O)c1cnn(-c2ccc(F)cc2)c1C1CCNCC1	inactive: 80%

SMILES	survival
Cc1c(NC(=O)C(F)(F)F)ccc2nc3c(=O)n(C)c(=O)n(C)c3nc12	inactive: 79%
Cc1cccc(OCCOCCn2c(-c3ccc(Cl)cc3)nc3ccccc3c2=O)c1C	inactive: 60%
Cc1ccccc1NC(=O)c1ccc(F)c(S(=O)(=O)N2CCc3ccccc3C2)c1	inactive: 61%
COC(=O)Cn1ccc2cc(S(=O)(=O)N3CCCCC3)ccc21	inactive: 93%
Cc1cc(C)c(S(=O)(=O)N2CCC(N3CCN(Cc4ccc(F)cc4)C(=O)C3=O)CC2)c(C)c1	inactive: 83%
CC(C)c1ccc(NC(=O)c2cnn3c(C(F)F)cc(-c4ccccc4)nc23)cc1	inactive: 65%
Cc1ccc(C(C)C)c(OCCCn2c(=O)oc3ccc(C)cc32)c1	active: -5%
CCc1ccccc1NC(=O)Cn1nnc(C(=O)Nc2ccc(OC)c(OC)c2)c1N	inactive: 95%
CCOc1cccc(C(=O)Nc2ccc(-c3nc4cc(C)cc(C)c4o3)cc2)c1	inactive: 115%
CCCCN(Cc1ccco1)C(=O)c1cc2c(s1)-c1c(C)cccc1OC2	active: -2%
Cc1cccc(NC(=O)c2oc3ccc(S(=O)(=O)N(C)C4CCCCC4)cc3c2C)c1C	inactive: 104%
CCc1ccc(S(=O)(=O)N2CCN(c3ccc(Cl)c(Cl)c3)CC2)cc1	inactive: 118%
CCOC(=O)c1ccccc1NC(=O)c1nn(-c2ccc(C)cc2)c(=O)n(C)c1=O	inactive: 79%
CCCS(=O)(=O)N1CC(=O)N(c2cc(C)cc(C)c2)C(C)(C(=O)NC2CCCCCC2)C1 (stereo not drawn)	inactive: 81%
N#Cc1ccc(NC(=O)c2ccc3c(c2)nnn3C2CCCC2)cc1	inactive: 126%
CCOC(=O)N1CCC(NC(=O)c2cnn(-c3ccc(C)cc3)c2C2CCN(C(=O)OC(C)(C)C)CC2)CC1	inactive: 88%
COc1ccc(-n2c(SCc3nc(-c4ccc(Cl)cc4)no3)nnc2-c2ccncc2)cc1	active: 49%
COc1ccc(Nc2oc(-c3ccc(COc4ccccc4)o3)nc2C#N)cc1	inactive: 100%
CCOc1ccccc1C(=O)Nc1cc(-c2nc3cccnc3s2)ccc1C	active: 37%
CCC(Sc1ncnc2sc3c(c12)CCCC3)C(=O)OCC(C)C (stereo not drawn)	active: -6%
CC(C)(C)C(=O)Nc1ccc2nc(SCCOc3ccccc3Cl)sc2c1	inactive: 89%
Cc1ccc(C)c(N2CCN(C(=O)C3CCC(CNS(=O)(=O)c4ccc(Br)s4)CC3)CC2)c1 (stereo not drawn)	inactive: 67%
